This passage reports z-score results from PubChem BioAssay AID488969 (Vanderbilt High Throughput Screening Facility, 2010).

In all, about 110,000 compounds were measured (“z-score”: median about -0.1, highest 2% from about 2 on). The list shows a part of the results.

For this assay, the target named is Metabotropic glutamate receptor 8 (Rattus norvegicus) (UniProt P70579). Put plainly: rat mGluR8 modulators via GIRK flux, primary screen, cell-based, thallium flux, HTS (AID 488969). Conditions: HEK293 rat mGluR8, GIRK (G protein-gated inwardly rectifying potassium channel) thallium flux, FluoZin2; at 10 µM; stronger effect = higher value; submaximal glutamate (EC20) added with thallium.
UniProt P70579, sequence (P70579 whole entry, looked up): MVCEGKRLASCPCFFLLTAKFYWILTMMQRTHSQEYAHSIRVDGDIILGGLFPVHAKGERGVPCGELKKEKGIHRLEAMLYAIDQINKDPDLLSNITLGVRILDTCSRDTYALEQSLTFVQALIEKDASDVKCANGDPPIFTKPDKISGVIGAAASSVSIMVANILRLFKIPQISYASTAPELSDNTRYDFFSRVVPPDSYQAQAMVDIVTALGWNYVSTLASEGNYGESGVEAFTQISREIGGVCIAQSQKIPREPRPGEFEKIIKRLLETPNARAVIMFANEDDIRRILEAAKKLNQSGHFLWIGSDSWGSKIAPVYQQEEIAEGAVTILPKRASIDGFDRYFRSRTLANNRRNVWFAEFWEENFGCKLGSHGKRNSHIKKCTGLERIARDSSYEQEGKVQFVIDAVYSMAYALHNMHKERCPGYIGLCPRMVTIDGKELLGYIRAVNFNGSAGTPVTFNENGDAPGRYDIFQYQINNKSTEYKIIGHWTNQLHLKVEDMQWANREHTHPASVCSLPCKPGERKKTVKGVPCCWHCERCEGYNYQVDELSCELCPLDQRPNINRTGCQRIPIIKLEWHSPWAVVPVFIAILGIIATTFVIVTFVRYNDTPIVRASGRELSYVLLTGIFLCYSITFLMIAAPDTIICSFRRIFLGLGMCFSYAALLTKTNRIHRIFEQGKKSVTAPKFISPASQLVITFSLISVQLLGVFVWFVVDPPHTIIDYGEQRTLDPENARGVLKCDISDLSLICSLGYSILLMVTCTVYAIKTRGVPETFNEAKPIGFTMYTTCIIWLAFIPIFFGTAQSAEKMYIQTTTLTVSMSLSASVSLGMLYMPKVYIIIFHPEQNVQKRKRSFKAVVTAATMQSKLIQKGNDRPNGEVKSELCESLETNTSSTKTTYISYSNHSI
`Cc1cc(C)nc(SCC(=O)N/N=C/c2cccn2-c2ccc(O)cc2)n1`: the z-score was -0.417.

As for `Clc1ccc(-c2cn3cc(Br)ccc3n2)cc1Cl`, the z-score is -0.148. In turn, `CCOc1ccc(N(CC(=O)N2CCCC2)S(=O)(=O)c2c(C)noc2C)cc1` returned a z-score of 0.0369. In turn, `COc1cc(C)c(Cl)cc1S(=O)(=O)n1cnc(C)c1` had a z-score of 0.326.

Compound `O=C(CSCc1ccccc1)NC1CCSC1=O` (stereo unspecified) yielded a z-score of 0.14. Then `CC1CCN(S(=O)(=O)c2ccc(NC(=O)CN3CCOCC3)cc2)CC1`, with 0.18; and `Cc1ccc(-n2nnc3c(SCC(=O)N4CCN(c5ccccc5)CC4)ncnc32)cc1`, with 1.22; and `O=C(CSc1nnc(C2CC2)n1-c1ccccc1)NCc1ccco1`, with -0.619. As for `CC(=O)c1sc(NC(=O)c2cc3c(C)nn(-c4ccccc4)c3s2)nc1C`, the z-score was -0.0973. As to `O=C(CN(CC1CCCO1)C(=O)CNS(=O)(=O)c1ccc(Cl)cc1)NCCc1ccccc1` (stereo unspecified), the z-score was -0.11. The result for `Cc1ccc(C)c(NC(=O)CC(NCCCN2CCOCC2)C(=O)O)c1` (stereo unspecified) reads 0.145; that for `CCOc1cc(C2c3c(n[nH]c3C)C(=O)N2c2ccc(Br)cc2)ccc1O` (stereo unspecified), -0.976; that for `CCc1ccc(C2NC(=S)NC3=C2C(=O)CC(C)(C)C3)cc1` (stereo unspecified), -0.048. As for `COc1ccc(C2N(c3cc(Cl)ccc3OC)C(=O)C3CCCN32)cc1OC` (stereo unspecified), the z-score is -0.492. `Cc1cccc(OCC(=O)Nc2cccc(-c3nnc(-c4ccccc4)o3)c2)c1C`: the z-score was -0.0288. The compound `O=C(C1CCCO1)N1N=C(c2ccc(Br)cc2)CC1c1ccco1` (stereo unspecified) registered a z-score of -0.195.

As for `COc1cc(/C=C2/C(=O)NN(c3cccc(C)c3)C2=O)ccc1OC(=O)c1ccco1`, the z-score was -0.244. As for `Clc1cccc(Oc2ncccn2)c1`, the z-score was -0.0109. The result for `O=C(c1ccc2ccccc2c1)N1CCN(c2ccc([N+](=O)[O-])c(N3CCOCC3)c2)CC1` reads -0.791.

`Cc1ccc(S(=O)(=O)c2cn(Cc3ccc(F)cc3)c3cc4c(cc3c2=O)OCO4)cc1` showed a z-score of -0.295. `CS/C(=N\NC(N)=O)c1ccccc1` gave a z-score of -0.39.

In turn, `C/C(=C\C(=S)Nc1ccccc1)Nc1ccc2ccccc2c1` showed a z-score of -0.168. `CCOC(=O)/C=C/C(=O)Nc1ccccc1-c1ccccc1NC(=O)/C=C/C(=O)OCC` returned a z-score of -0.138. As for `Cc1nc2nc(-c3ccco3)nn2c(C)c1Cl`, the z-score came to 0.152. In turn, `CCOC(=O)c1c(N)nn(C(C)=O)c1-c1ccccc1` showed a z-score of 0.536. In turn, `Clc1ccc(-n2c(SCc3nc4ccccc4[nH]3)nnc2-c2ccncc2)cc1` registered a z-score of 0.063. As to `CCOCCCNC(=O)c1cc(Sc2ccc(C)cc2)nc2ccccc12`, the z-score is -0.896. Compound `Cc1cc[n+](C2=C([O-])c3ccccc3C(=O)/C2=N\S(=O)(=O)c2cccs2)cc1C` had a z-score of -0.234. In the case of `O=C(CSc1nc2ccccc2o1)c1ccccc1`, the z-score was -0.0752. With `Cc1nn(-c2ccccc2)cc1/C=N/O`, the z-score is 0.614. `CCOC(=O)C1CCCN(C(=O)c2cc(Nc3ccc(OC)c(OC)c3)nc3ccccc23)C1` (stereo unspecified): the z-score turned out to be 0.596. The result for `Cc1cc(C)nc(N2CCCC(C(=O)NCCc3cccc(F)c3)C2)n1` (stereo unspecified) reads -0.0417. With `COc1ccccc1Nc1ccc(Nc2ccccc2OC)nn1`, the z-score is 2.82. In turn, `Cc1ccc2nc(-c3ccccn3)cc(C(=O)NC3CCN(C)CC3)c2c1` displayed a z-score of 0.0319.

Take `CCOC(=O)C1=NNC(C(=O)c2ccc(Cl)cc2)C1c1ccccc1` (stereo unspecified): the z-score is -1.01. The result for `CCOCCCNC(=O)c1cccs1` reads -0.0746; that for `Cc1cc(C)c2c(N)c(S(=O)c3ccc(C(C)(C)C)cc3)sc2n1` (stereo unspecified), -0.276; that for `CC(C)(C)OC(=O)N1CCCC1C(=O)O` (stereo unspecified), 0.968.

With `O=C(COc1cccc2ccccc12)NNC(=O)CSCCO`, the z-score was -0.199.

Regarding `COC(=O)N/N=C/c1c(C)nn(-c2cccc(Cl)c2)c1Cl`, the z-score was -0.272.

Take `CCOc1ccc(NS(=O)(=O)c2ccc3c(c2)CCN3C(=O)CCC(=O)O)cc1`: the z-score was -0.111. `CCOc1cc(/C=C2\C(=O)N(Cc3ccc(C)cc3)C(C)=C2C(=O)OC)ccc1O` yielded a z-score of -0.136. In turn, `CCOC(=O)c1sc(NC(=O)CSc2nnc(-c3ccco3)o2)c(C(=O)OCC)c1C` registered a z-score of -1.07.

Take `O=C(Cn1cc(C(=O)c2ccco2)c2ccccc21)NC1CCCC1`: the z-score was -0.0135. Then `O=C(CCn1cnc2ccccc2c1=O)Nc1cccc(Cl)c1`, with 0.128; and `CCOCc1nc(N)[nH]c(=O)c1Cc1ccc(OC(C)C)cc1`, with -0.264; and `Cc1occc1C(=O)NC(C)C1CCCO1` (stereo unspecified), with 0.0299. The result for `O=C(Nc1nncs1)C1c2ccccc2Oc2ccccc21` reads -0.171; that for `CC(=O)c1cccc(NS(=O)(=O)c2ccc(N/C=C\C(=O)c3ccc(F)cc3)cc2)c1`, 0.0754; that for `Cc1ccnc(NC(=S)NC(=O)/C=C/c2ccccc2)c1`, -0.0726. Compound `O=C(O)CCC(=O)NCC1OCCc2ccccc21` (stereo unspecified) came in with a z-score of -0.0772. Then `O=C(OCCCN1C(=O)c2ccccc2C1=O)c1ccco1`, with 0.00586; and `COC(=O)c1sc(NC(=O)COc2ccccc2OC)nc1C`, with 0.968. With `NNC(=O)Cc1cn(-c2ncc(C(F)(F)F)cc2Cl)c2ccccc12`, the z-score is -0.17. Then `Cc1ccc(-c2nnc(-c3ccccc3)o2)cc1`, with -0.254. Then `Cc1ccc(NC(=O)COC(=O)Cc2csc(-c3cccc(F)c3)n2)cc1C`, with -0.279; and `COC(=O)NC(NC(=S)Nc1ccccc1OC)C(Cl)(Cl)Cl` (stereo unspecified), with -0.165. Consider `Cc1cc(=O)oc2cc(OCC(=O)NCc3cccnc3)ccc12`, for which the z-score is -0.363. In the case of `CCC(=O)N(Cc1cc2ccccc2[nH]c1=O)C(C)C`, the z-score came to 0.0128.

With `O=C1OC(Nc2cc(Br)cc3cccnc23)c2ccccc21` (stereo unspecified), the z-score was -0.139.

Take `N#C/C(=C1\CCCN1)c1nc2ccccc2c(=O)[nH]1`: the z-score is -0.0144. The result for `O=C(NCc1ccc(Cl)cc1Cl)c1ccccn1` reads -0.0328; that for `C=C1c2cc(C)ccc2NC(=O)N1c1ccc(C)cc1`, -0.68; that for `O=[N+]([O-])c1ccc(Oc2c(F)c(F)nc(N3CCCC3)c2F)cc1`, 0.0329. The result for `Cc1nc2ccccc2c(=O)n1/N=C/c1cccnc1` reads 0.936; that for `CC(=O)c1ccc(NC(=O)COC(=O)c2ccccc2N=Nc2ccc(N(C)C)cc2)cc1`, -0.29. In turn, `CC(C)(C)OC(=O)NCCCC(CCCNC(=O)OC(C)(C)C)C(=O)O` returned a z-score of 0.00715. Compound `O=C(CSc1nc(O)cc(=O)[nH]1)Nc1ccc2c(c1)CCC2` showed a z-score of 0.385. Then `Cc1nn(C)cc1/C=N/NC(=O)c1ccc2c(c1)OCO2`, with 0.196; and `COc1cc(C(=S)N2CCCCC2)ccc1OCC(=O)N1CCCC1`, with -0.248. Consider `Cc1n[nH]c(C)c1S(=O)(=O)N1CCN(C2CCCCC2)CC1`, for which the z-score was -0.213.

For the compound `O=C(NCCc1c[nH]c2ccccc12)C(=O)NCC(c1ccco1)N1CCN(c2ccccc2)CC1` (stereo unspecified), the z-score is -0.273. Compound `ONC(=Nc1ccc(Cl)cc1)c1ccccc1Cl` showed a z-score of -0.317. For the compound `COc1ccccc1NS(=O)(=O)c1ccc(NN=C2CCCC2)c([N+](=O)[O-])c1`, the z-score was -0.0637. In the case of `c1ccc2c(c1)OCC(c1csc3ncnc(N4CCCCC4)c13)O2` (stereo unspecified), the z-score amounted to 0.241. The result for `Nc1nc(=S)[nH]c2c1C1(CCCC1)Cc1ccccc1-2` reads 0.292; that for `Cn1nnnc1SCC(=O)c1ccc(Br)s1`, 0.107. On to `O=C(Nc1ccc(Cl)cc1)C1CCC(=O)N1Cc1ccccc1Cl` (stereo unspecified), for which the z-score was 0.406. The result for `CCCOc1ccc(-c2nc(C#N)c(N3CCN(C)CC3)o2)cc1` reads 0.0206. In turn, `O=C(COc1cccc2ccccc12)NNC(=O)C1CCCO1` (stereo unspecified) registered a z-score of -0.256. Compound `CCCn1c(SCC(=O)Nc2ccc(C)c(S(=O)(=O)N3CCOCC3)c2)n[nH]c1=O` returned a z-score of -1.09. The compound `Cc1cc(NS(=O)(=O)c2ccc(NC(=S)NC(=O)c3ccc(Cl)cc3Cl)cc2)no1` registered a z-score of -0.373. Then `Cc1cc(OCC(=O)NCc2ccccn2)cc(C)c1Br`, with -0.0558; and `COc1ccc2nc(Nc3nc(-c4cc5ccccc5oc4=O)cs3)sc2c1`, with 0.228. `COc1cc2ccccc2cc1-c1nnc(COc2ccccc2)o1`: the z-score is -0.463. `CCN1C(=O)/C(=C\c2cn(CCC#N)nc2-c2ccc(F)cc2)SC1=S` registered a z-score of 0.195. Compound `Cc1c(Cl)c([N+](=O)[O-])nn1CC(=O)Nc1ccc2c(c1)OCO2` returned a z-score of -0.00978. Compound `CCCCCC(C)NC(=O)c1ccoc1C` (stereo unspecified) had a z-score of -0.17. Compound `Cc1ccc(N2CN(Cc3cccnc3)CNC2=S)cc1` returned a z-score of 1.11. Turning to `C/C(=N\OCC(=O)Nc1ccccc1C(C)(C)C)c1ccc2c(c1)OCCO2`, the z-score is -0.212. `Cc1ccc(SC(C)c2nc(-c3cccnc3)no2)cc1` (stereo unspecified) showed a z-score of -0.789. The result for `Cn1c(=O)oc2cc(S(=O)(=O)NCCC(=O)N3CC=C(c4ccccc4)CC3)ccc21` reads 0.133; that for `COc1ccc(C(O)(C(=O)NNc2ccc(C)cc2)c2cccs2)cc1` (stereo unspecified), 0.0939; that for `CCOC(=O)c1ccc(NC(=S)NC(=O)c2nn(CC)cc2Br)cc1`, 1.17. `Cc1cccc(N2C(=O)/C(=C\c3ccc(OC(F)F)cc3)c3ccccc3C2=O)c1` displayed a z-score of -0.0122.

For `CCOC(=O)c1cc2c(=O)n3cccc(C)c3nc2n(Cc2cccnc2)c1=N`, the z-score was -0.0747. Then `CO/N=C/NC(=O)c1ccc([N+](=O)[O-])c(CS(=O)(=O)c2ccc(Cl)cc2)c1`, with -0.17; and `COc1ccccc1OCC(=O)n1cc(C(=O)c2cc(Cl)cc(Cl)c2O)cn1`, with -0.0132; and `COc1cc(C(=O)NCc2nnc(SCC(=O)Nc3cc(C)cc(C)c3)o2)cc(OC)c1OC`, with -0.362. For `O=C(Nc1ccc(N2CCOCC2)cc1)NC1CCCCC1`, the z-score was 0.289. As to `O=C(N/N=C\c1cccc([N+](=O)[O-])c1O)C1COc2ccccc2O1` (stereo unspecified), the z-score is -0.13.

`O=C1NCCCC2c3c(cc(Br)c(O)c3Br)OC12N1CCCCC1` (stereo unspecified) returned a z-score of -0.129. For `O=C1CC(SCc2nc3ccccc3[nH]2)C(=O)N1c1ccc(Cl)cc1` (stereo unspecified), the z-score is 0.13. In turn, `CSc1nc(Oc2ccc(=O)[nH]n2)nc(N(C)C)n1` displayed a z-score of -0.213. In the case of `COc1ccc(NC(=S)NCc2ccco2)c(OC)c1`, the z-score is -0.214.

On to `CSCCC(NC(=O)c1ccccc1)C(=O)NC1CC1` (stereo unspecified), for which the z-score is 0.177.

Turning to `Cc1noc(C)c1CSCC(=O)OCC(=O)NC1CCCCC1`, the z-score was found to be 0.822. Compound `CCCn1c(=N)c(C(=O)NCc2ccc3c(c2)OCO3)cc2c(=O)n3cccc(C)c3nc21` returned a z-score of 1.02.

Regarding `COC(=O)C(Cc1ccccc1)NC(=O)CSc1nc(C)cc(=O)[nH]1` (stereo unspecified), the z-score was 0.408. `COc1cc(C2C(C#N)=C(N)Oc3cc(N)ccc32)cc(OC)c1OC` (stereo unspecified) displayed a z-score of -1. As to `CSCCC(C(=O)N1C[C@]2(C)C[C@H]1CC(C)(C)C2)N1C(=O)c2ccccc2C1=O` (stereo partly specified), the z-score is -0.0688.
